The results in this text go back to PubChem BioAssay AID1240 (Sanford-Burnham Center for Chemical Genomics, 2008).

Screen size: about 50,000 compounds; about 800 (1.6%) showed an effect of 50% or more. This is one part of the list.

This experiment concerns the target Bcl-2-like protein 10 (Homo sapiens) (UniProt Q9HD36). The experiment is described as follows: TR3 peptide-Bcl-B binding displacers, biochemical primary FP assay, phenotype converters (AID 1240).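 Also: 0% = Bcl-B with tracer peptide and DMSO and 100% = tracer peptide lacking Bcl-B.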 Particulars: GST-Bcl-B / FITC-TR3 peptide fluorescence polarization; stronger effect = higher value; compound at 3.75 mg/L. On the technique in general: Polarisation of emitted light reports the rotation of a fluorescent probe.
UniProt Q9HD36, sequence (Q9HD36 whole entry, looked up): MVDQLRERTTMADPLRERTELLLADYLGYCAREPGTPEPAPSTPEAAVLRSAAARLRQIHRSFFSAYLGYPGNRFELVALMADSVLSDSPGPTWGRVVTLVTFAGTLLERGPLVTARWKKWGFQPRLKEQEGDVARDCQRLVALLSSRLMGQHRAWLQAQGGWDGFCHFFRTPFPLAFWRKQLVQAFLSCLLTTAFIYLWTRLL
Turning to `CN1CCN(C2CC(=O)N(c3ccc(Cl)c(Cl)c3)C2=O)CC1` (stereo not drawn), the displacement was 2.8%.

In the case of `COc1ccccc1OCCOc1ccc(Br)cc1/C=N/n1cnnc1`, the displacement turned out to be 15.6%.

For `Cc1ccc(C2C(=O)c3ccccc3C2=O)c(C)c1C`, the displacement is -9.2%.

Regarding `Cc1ccc(NC(=S)NC(=O)/C=C/c2ccco2)c(Br)c1`, the displacement is -2.8%.

For the molecule `COc1ccc(NC(=O)COc2cccc(Cl)c2)c([N+](=O)[O-])c1`, the displacement is -5.5%.

As to `O/N=C/c1cn(-c2ccccc2)nc1-c1ccc(Cl)cc1`, the displacement was -3.8%.

For `COC(=O)c1c(-c2ccccc2)csc1NC(=O)C1CC=CCC1C(=O)O` (stereo not drawn), the displacement amounted to 1%.

For `CC(=O)CC(=O)NCc1ccc(Cl)cc1`, the displacement is 3.5%.

Take `CCOc1ccc2nc(SC3CC(=O)N(c4cccc(OC)c4)C3=O)sc2c1` (stereo not drawn): the displacement came out at 10.2%.

For `CCCC(=O)NS(=O)(=O)c1ccc(NC(=O)c2ccccc2Cl)cc1`, the displacement amounted to 11.2%.

Take `O=C(N/N=C/c1ccc(Cl)cc1Cl)C1CC(=O)N(c2ccc(F)cc2)C1` (stereo not drawn): the displacement was -6.2%.

On to `O=C(/C=C/c1ccccc1OCc1ccccc1)c1ccc(Cl)cc1`, for which the displacement was -1.9%.

As for `COc1ccc(C2CC(=O)C3=C(C2)Nc2ccccc2NC3c2ccc(F)c(Br)c2)cc1` (stereo not drawn), the displacement stood at 5%.

On to `COc1cc(CN2CCN(C(=O)c3cccc(Cl)c3)CC2)cc(OC)c1OC`, for which the displacement was -5%.

For the molecule `O=C(Cn1nnc(-c2ccccc2)n1)Nc1ccccc1[N+](=O)[O-]`, the displacement stood at 8.8%.

As to `Cc1c(NC(=O)C(Cc2ccccc2)N2C(=O)c3ccccc3C2=O)c(=O)n(-c2ccccc2)n1C` (stereo not drawn), the displacement worked out at 9.4%.

Regarding `CC(C)CC(NC(N)=O)c1ccccc1` (stereo not drawn), the displacement was 5.2%.

Take `COc1cccc(C(=O)NC(NC(=S)Nc2ccccc2Cl)C(Cl)(Cl)Cl)c1` (stereo not drawn): the displacement turned out to be 13.2%.

As for `O=C(COc1ccccc1Cl)NCCCN1CCOCC1`, the displacement was -2.6%.

In the case of `O=C(O)c1ccc(/C=C2\SC(=S)N(C(Cc3ccccc3)C(=O)O)C2=O)cc1` (stereo not drawn), the displacement is 15%.

For the molecule `Cc1ccc(-c2csc(NC(=O)c3ccc(Cl)c(Cl)c3)n2)cc1`, the displacement is -3.6%.

For the molecule `COc1ccc(C2NC(=O)NC(C)=C2C(=O)Nc2cccc(Cl)c2)cc1` (stereo not drawn), the displacement was 11.4%.

For `Cc1ccc(C=C2C(=O)N(C)C(=O)N(C)C2=O)cc1`, the displacement worked out at 79.7%.

As to `Cn1c(=O)c2c(nc(SCC(=O)O)n2C)n(C)c1=O`, the displacement is -1.5%.

`O=C1N=C(N2CCCCC2)S/C1=C\c1ccccc1Cl`: the displacement is -4.2%.

As to `CCOC(=O)/C=C(\C)Nc1cc(C)nn1-c1ccccc1`, the displacement is -9.5%.

Turning to `CC(=O)c1cccc(NC(=O)/C(=C/c2cccnc2)NC(=O)c2cccc(Br)c2)c1`, the displacement was -7.6%.

`COc1cc(/C=N/NS(=O)(=O)c2ccc(C)cc2)ccc1OC(=O)Nc1ccccc1`: the displacement was found to be 8%.

As for `CC1(C)CC(=O)C/C(=N/NC(=O)c2ccccc2)C1`, the displacement turned out to be 4.9%.

With `O=S(=O)(Nc1ccc(N2CCCCC2)cc1)c1cccc2cccnc12`, the displacement was -1.9%.

Consider `CC1(C(=O)NCc2cccnc2)CC2c3ccccc3C1c1ccccc12` (stereo not drawn), for which the displacement came to 7.2%.

Regarding `COc1cccc(NC(=O)CN(c2ccc(Cl)cc2)S(C)(=O)=O)c1`, the displacement was -17.7%.

As to `COc1ccc(NC(=O)c2c(-c3ccccc3Cl)noc2C)cc1`, the displacement worked out at 8.5%.

As to `Cc1cccc(N2C(=O)/C(=C/c3ccc(F)cc3)SC2=S)c1C`, the displacement was found to be 3%.

For `Cc1onc(-c2c(F)cccc2Cl)c1C(=O)N1CCOCC1`, the displacement is -7.9%.

On to `Cc1cc2nc(-c3cc(NC(=O)c4cc5ccccc5o4)ccc3O)oc2cc1C`, for which the displacement was -16%.

Consider `Cc1ccc(Nc2nc3nonc3nc2N)c(C)c1`, for which the displacement is 45.7%.

Turning to `COc1ccc2c(=O)cc(C(F)(F)C(F)(F)C(F)(F)C(F)F)oc2c1`, the displacement is -1.2%.

As to `CCOc1ccc(S(=O)(=O)Nc2ccc(NC(C)=O)cc2)cc1`, the displacement came to 5.2%.

With `Cc1cccc(N2CCN(C(=O)Nc3ccc(Cl)c(Cl)c3)CC2)c1C`, the displacement is -0.9%.

With `O=C(Nc1cc(C(F)(F)F)cc(C(F)(F)F)c1)c1ccc([N+](=O)[O-])cc1`, the displacement was -7.2%.

In the case of `O=C1NN(c2cccc(Cl)c2)C(=O)/C1=C\C=C\c1cccc([N+](=O)[O-])c1`, the displacement is -1%.

For `CC(C)Cn1c(SCc2ccc(Br)cc2)nc2sc3c(c2c1=O)CC(C)(C)OC3`, the displacement was -6.8%.

In the case of `CC1=C(C(=O)OCCc2ccccc2)C(c2cc([N+](=O)[O-])ccc2Cl)C2=C(CCCC2=O)N1` (stereo not drawn), the displacement is -5.1%.

As for `CC(C)(C)c1ccc(C(=O)N2N=C(c3ccc([N+](=O)[O-])cc3)CC2(O)C(F)(F)F)cc1` (stereo not drawn), the displacement was 2.9%.

For the molecule `Cc1ccc(OCC(=O)Nc2ccccc2C(F)(F)F)c(C)c1`, the displacement was -8.5%.

In the case of `CCOc1ccccc1NC(=O)c1c(Cl)ccc(Cl)c1OC`, the displacement is 1.3%.

Consider `COC(=O)C1=CN(Cc2cccs2)C=C(C(=O)OC)C1c1cc(OC)c(OC)c(OC)c1`, for which the displacement worked out at 5.3%.

For `O=C(O)c1cc2n(n1)C(C(F)(F)F)CC(c1ccc3c(c1)OCO3)N2` (stereo not drawn), the displacement was 7.9%.

With `C=CCN1C(=O)/C(=C\c2cccs2)SC1=S`, the displacement worked out at 6.7%.

In the case of `CCOC(=O)/C(N=Nc1cc(C)ccc1OC)=C(/C)O`, the displacement is -1.5%.

As for `COc1ccc(-n2c(O)c(C=Nc3ccc(C)cc3)c(=O)[nH]c2=O)cc1`, the displacement stood at 1%.

As to `COc1ccc(NC(=O)c2cnccn2)cc1`, the displacement came out at 105%.

Turning to `CCC(Oc1ccccc1)C(=O)N1CCN(c2ccccc2)CC1` (stereo not drawn), the displacement is -1.6%.

Turning to `COc1ccc(O)c(C2N(Cc3ccccc3O)CCN2Cc2ccccc2O)c1`, the displacement was -13.2%.

As for `O=C(N=Nc1c(O)[nH]c2ccc([N+](=O)[O-])cc12)c1cccc(Br)c1`, the displacement turned out to be 3.3%.

As for `CCOC(=O)c1c[nH]c2c(ccc3ccccc32)c1=O`, the displacement stood at 18.1%.

In the case of `O=C(Nc1ccc2c(c1)OCO2)c1ccc(Cl)cc1[N+](=O)[O-]`, the displacement is -4.5%.

Turning to `CC1CN(c2ccc(Cl)cc2[N+](=O)[O-])CCN1S(C)(=O)=O` (stereo not drawn), the displacement is -11%.

Turning to `Cc1cc(C)c(NS(=O)(=O)c2ccc(Cl)c([N+](=O)[O-])c2)c(C)c1`, the displacement came to 2.5%.

`CC(C)(C)c1cc(CCC(=O)NNC(=O)c2ccccc2)cc(C(C)(C)C)c1O`: the displacement is -2.2%.

Consider `Cc1cc(Cl)ccc1OCC(=O)Nc1nc2ccc(Cl)cc2s1`, for which the displacement is -7.8%.

As for `Cc1ccc(NC(=O)CN(c2cccc(C(F)(F)F)c2)S(C)(=O)=O)c(C)c1`, the displacement is -2.3%.

Consider `CCN(CC)c1ccc(C2NC(=O)NC(C)=C2C(=O)OCc2ccc(OC)cc2)cc1` (stereo not drawn), for which the displacement came to 3.9%.

For the molecule `CCCCOCC(O)CCc1n[nH]c(=S)n1-c1ccccc1` (stereo not drawn), the displacement is 3.4%.

`CCCCN(CCCC)S(=O)(=O)c1ccccc1[N+](=O)[O-]`: the displacement is -4.1%.

Take `Cc1ccc(NC(=O)/C=C/c2cccc(C(F)(F)F)c2)cc1`: the displacement is -0.3%.

Consider `Cc1ccc(/C(O)=C2/C(=O)C(=O)N(CCCn3ccnc3)C2c2ccc(Cl)cc2)cc1` (stereo not drawn), for which the displacement worked out at 2.3%.
